Reference: PubChem BioAssay AID651820 (National Center for Advancing Translational Sciences (NCATS), 2012)
Hit rate of the full screen: of about 340,000 compounds, about 12,000 (3.5%) were called active. The inconclusive results got no clear call from the source; some entries with a clear call stand among them for comparison. The call rests on the fitted dose curve; in most records, active means well fitted inhibition curve with a large enough effect; inconclusive means small, poorly fitted or top-dose-only effect, or another doubt; inactive means no such curve, though single readings can be large or run the other way. Potencies of inconclusive entries are left out as doubtful fits.

Experiment: qHTS Assay for Inhibitors of Hepatitis C Virus (HCV)
Conditions: Huh7.5.1 HCVcc-Cre (HCVcc is cell-culture hepatitis C virus) infection, luciferase reporter, 44 h; series mostly up to 41.8 µM
In short: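 Whole-lifecycle infectious HCVcc-Cre system; cells 1,000/well, compound then virus (~0.5 moi) added 4 h after plating, 44 h culture. Luciferase read 15 sec following 15 min substrate incubation, room temp.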
Potency means the concentration at half of the fitted maximal effect; tags describe the fitted curve by direction and shape.

Compound	Potency
CCN(CC)S(=O)(=O)c1ccc(OC)c(NC(=O)c2cc([N+](=O)[O-])ccc2Cl)c1	inconclusive [inhibitor, single point]
Cc1ccc(CNS(=O)(=O)/C=C/c2ccc3c(c2)OCO3)cc1	inconclusive [inhibitor, partial curve]
Cc1[nH]n(-c2ccccc2)c(=O)c1C=Nc1cccc2cccnc12	active: 3.55 µM
O=C(NCCN1C(=O)S/C(=C\c2ccc(Cl)cc2)C1=O)c1ccc(F)c(S(=O)(=O)N2CCOCC2)c1	inconclusive [inhibitor, full curve, poor fit]
Fc1ccccc1CCNCc1cccc2ccccc12	inactive
CCOC(=O)C1CCN(C(=O)c2cc3c(ccc4ccccc43)o2)CC1	inconclusive [inhibitor, single point]
Cc1cc2ncn(-c3ncnc4sc(C)c(C)c34)c2cc1C	inconclusive [inhibitor, single point]
COc1ccc(NC(=S)N2CCN(C/C=C/c3ccccc3)CC2)cc1OC	inconclusive [inhibitor, single point]
COC(=O)c1cc(NC(=O)CN(c2cccc(OC)c2)S(=O)(=O)c2ccccc2)ccc1Cl	inconclusive [inhibitor, partial curve]
CCc1ccc(CNC(=O)CCC(=O)N2Cc3cccc(OC)c3Oc3ncccc32)cc1	inactive
N#Cc1sc(NCc2ccccc2)nc1Cl	inactive
C=CCN1C(=O)C(C)(C)N(C(=O)c2cccc([N+](=O)[O-])c2)c2ccccc21	inconclusive [inhibitor, single point]
CCCc1ccc(C(C)NC(=S)NC2CCCCC2)cc1 (centres undefined)	inconclusive [inhibitor, single point]
Cc1cc(Oc2ccc(C#N)cc2)nc(NCc2ccccc2)n1	inconclusive [inhibitor, single point]
COc1ccc(N2CCN(C(=O)COC(=O)c3ccccc3OCc3ccc(F)cc3)CC2)cc1	inconclusive [inhibitor, single point]
Cc1ccc(SCCN2CCC(C)CCC2=O)cc1 (centres undefined)	inactive
O=C(Nc1ccc(Nc2ccccc2)cc1)c1ccccc1	inactive
CN(C)c1cc2c(cc1NC(=O)c1ccccc1Cl)n(C)c(=O)n2C	inconclusive [inhibitor, partial curve]
C=CCSc1nnc(NC(=O)CN2C(=O)NC3(CCCC3)C2=O)s1	inactive
COc1cccc(C2CC(c3cccc(NS(C)(=O)=O)c3)=NN2C(=O)c2ccccc2)c1OC (centres undefined)	inconclusive [inhibitor, single point]
CC(C)C(OC(=O)CN1C(=O)COc2ccccc21)C(=O)NC1CCCCC1 (centres undefined)	inconclusive [inhibitor, single point]
CCOC(=O)CN1NC2(CCCCCCC2)NC1=S	inactive
CCN1CCN(c2ccc(N=Cc3ccccc3O)cc2)CC1	inactive
NS(=O)(=O)c1ccc(CCNC(=O)CN2CCN(c3ccccc3O)CC2)cc1	inactive
Cc1ccc(NC(=O)C2Cc3ccccc3CN2C(=O)c2ccco2)cc1S(=O)(=O)N(C)C (centres undefined)	inactive

Compound	Potency
CC(=O)OC1COC(OC(C)=O)CO1 (centres undefined)	inactive
COC(=O)CN(C#N)c1nc(NC(C)C)nc(NC(C)C)n1	inactive
CCOC(=O)C1(CCCc2ccccc2)CCN(C(=O)C2CCCO2)CC1 (centres undefined)	inactive
COC(=O)c1c(C)[nH]c(C(=O)OCC(=O)c2c(N)n(CC(C)C)c(=O)n(C)c2=O)c1C	active: 3.98 µM
C=C(C)COc1ccc(-c2ncncc2-c2ccc(Cl)cc2)c(O)c1	inconclusive [inhibitor, single point]
COc1c(-c2ccc([N+](=O)[O-])cc2[N+](=O)[O-])c(=O)n(C)c(=O)n1C	inactive
O=C(NCc1n[nH]c(=S)n1-c1ccc(Br)cc1)c1ccc(S(=O)(=O)N2CCCCC2)cc1	inactive
O=C(NNC(=O)c1ccc2c(c1)OCO2)NC12CC3CC(CC(C3)C1)C2	inactive
COc1ccc(-c2nc3ccccc3nc2-c2ccc(OC)c(OC)c2)cc1OC	inactive
CC(C)n1c(O)c(/C=C2\C=NN=C2c2ccccc2)sc1=S	inactive
O=C1NC(=Nc2cccnc2)S/C1=C\c1cccc(F)c1	inactive
COc1cc(C(=O)NCC(c2cccs2)N2CCOCC2)cc(Br)c1OCc1ccccc1 (centres undefined)	active: 10 µM
Cc1nc2ccccc2c2oc(C(=O)NCc3ccccn3)cc12	inconclusive [inhibitor, partial curve]
CCOc1ccccc1NC(=O)c1cccc(NC(=O)C(C)C)c1	inconclusive [inhibitor, partial curve]
CCN1C(N(C)CCc2c[nH]c3ccccc23)=N[C@@H](c2cccc(C(F)(F)F)c2)C(C(=O)OC)=C1C	active: 25.1 µM
OC(Cc1ccnc2ccccc12)C(Cl)(Cl)Cl (centres undefined)	active: 11.2 µM
CC(C)(C)OC(=O)C1C(=O)CC(C)(O)C(C(=O)OC(C)(C)C)C1c1cccnc1 (centres undefined)	inactive
CCOC(=O)c1oc2cccc(OCC(O)CNC(C)C)c2c1C (centres undefined)	inconclusive [inhibitor, single point]
COCc1c(C(=O)Nc2cccc(S(=O)(=O)N3CCCCC3)c2)oc2ccccc12	inconclusive [inhibitor, single point]
O=C(c1cnn(C(=O)c2cccc(S(=O)(=O)N3CCOCC3)c2)c1)c1cc(Cl)cc(Cl)c1O	inconclusive [inhibitor, full curve, poor fit]
CN(c1ccc(O)cc1)c1nc(-c2cccs2)cs1	inconclusive [inhibitor, single point]
CCn1cc(CN2CCC(n3nccc3NC(=O)c3cccc(F)c3)CC2)cn1	inactive
COc1ccc(/C=C2\SC(=S)N(CC(=O)N(C)C3CCS(=O)(=O)C3)C2=O)cc1 (centres undefined)	inconclusive [inhibitor, partial curve]
CCOc1ccccc1C=NNC(=O)c1cccc2ccccc12	inconclusive [inhibitor, full curve, poor fit]
